# In the supplement of paper PMC8728848:
# The list shows a part of the results.
# Experiments:
# Assay in all cases: glycan array binding signal (z-score within array); higher = stronger binding
# Settings in all cases: glycan notation: IUPAC condensed, linker removed
# [1] = target: GlcNAc(b1-4)GlcNAc(b1-4)GlcNAc(b1-4)GlcNAc(b1-4)GlcNAc(b1-4)GlcNAc
# Summary of the method: (§1)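 Negative Z-scores can be read as non-binding. The Z-score is calculated within each array and then averaged across arrays of one protein sequence at different concentrations or buffers and across linkers. Arrays, 3228 in all, were curated from the Consortium for Functional Glycomics database and kept only where the protein sequence was available.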
# [2] = target: GlcNAc(b1-4)[GlcNAc(b1-6)]GalNAc
# Summary of the method: as §1
# [3] = target: GlcNAc(b1-6)Gal(b1-4)GlcNAc
# Summary of the method: as §1
# [4] = target: GlcNAc(b1-6)GalNAc
# Summary of the method: as §1
# [5] = target: GlcNAc6S(b1-3)Gal(b1-4)GlcNAc
# Summary of the method: as §1
# [6] = target: Kdn(a2-3)Gal(b1-3)GalNAc
# Summary of the method: as §1
# [7] = target: Kdn(a2-3)Gal(b1-3)GlcNAc
# Summary of the method: as §1
# [8] = target: Kdn(a2-3)Gal(b1-4)Glc
# Summary of the method: as §1
# [9] = target: Kdn(a2-3)Gal(b1-4)GlcNAc
# Summary of the method: as §1
# [10] = target: Kdn(a2-3)Gal(b1-4)[Fuc(a1-3)]GlcNAc
# Summary of the method: as §1
# [11] = target: Kdn(a2-6)Gal(b1-4)GlcNAc
# Summary of the method: as §1
# [12] = target: Man(a1-2)Man(a1-2)Man(a1-3)Man
# Summary of the method: as §1
# [13] = target: Man(a1-2)Man(a1-2)Man(a1-6)[Man(a1-3)]Man
# Summary of the method: as §1
# [14] = target: Man(a1-2)Man(a1-3)Man
# Summary of the method: as §1
# [15] = target: Man(a1-2)Man(a1-3)[Man(a1-2)Man(a1-6)]Man
# Summary of the method: as §1
# [16] = target: Man(a1-2)Man(a1-3)[Man(a1-2)Man(a1-6)]Man(a1-6)[Man(a1-2)Man(a1-2)Man(a1-3)]Man
# Summary of the method: as §1
# [17] = target: Man(a1-2)Man(a1-3)[Man(a1-2)Man(a1-6)]Man(a1-6)[Man(a1-2)Man(a1-2)Man(a1-3)]Man(b1-4)GlcNAc(b1-4)GlcNAc
# Summary of the method: as §1
# [18] = target: Man(a1-2)Man(a1-3)[Man(a1-6)]Man(a1-6)[Man(a1-2)Man(a1-3)]Man(b1-4)GlcNAc(b1-4)GlcNAc
# Summary of the method: as §1
# [19] = target: Man(a1-2)Man(a1-6)[Man(a1-3)]Man(a1-6)[Man(a1-2)Man(a1-2)Man(a1-3)]Man
# Summary of the method: as §1
# [20] = target: Man(a1-2)Man(a1-6)[Man(a1-3)]Man(a1-6)[Man(a1-2)Man(a1-2)Man(a1-3)]Man(b1-4)GlcNAc(b1-4)GlcNAc
# Summary of the method: as §1
# [21] = target: Man(a1-3)[Man(a1-6)]Man
# Summary of the method: as §1
# [22] = target: Man(a1-3)[Man(a1-6)]Man(a1-6)[Man(a1-2)Man(a1-3)]Man(b1-4)GlcNAc(b1-4)GlcNAc
# Summary of the method: as §1
# [23] = target: Man(a1-3)[Man(a1-6)]Man(a1-6)[Man(a1-3)]Man
# Summary of the method: as §1
# [24] = target: Man(a1-3)[Man(a1-6)]Man(a1-6)[Man(a1-3)]Man(b1-4)GlcNAc(b1-4)GlcNAc
# Summary of the method: as §1
# [25] = target: Man(a1-3)[Man(a1-6)]Man(b1-4)GlcNAc(b1-4)GlcNAc
# Summary of the method: as §1
# [26] = target: Man(a1-3)[Man(a1-6)]Man(b1-4)GlcNAc(b1-4)[Fuc(a1-6)]GlcNAc
# Summary of the method: as §1
# [27] = target: Man(a1-6)Man
# Summary of the method: as §1
# [28] = target: Man(b1-4)GlcNAc
# Summary of the method: as §1
# [29] = target: MurNAc(b1-4)GlcNAc
# Summary of the method: as §1
# [30] = target: Neu5Ac(a2-3)Gal
# Summary of the method: as §1
# [31] = target: Neu5Ac(a2-3)Gal(b1-3)GalNAc
# Summary of the method: as §1
# [32] = target: Neu5Ac(a2-3)Gal(b1-3)GalNAc(b1-3)Gal(a1-4)Gal(b1-4)Glc
# Summary of the method: as §1
# [33] = target: Neu5Ac(a2-3)Gal(b1-3)GalNAc(b1-4)[Neu5Ac(a2-3)]Gal(b1-4)Glc
# Summary of the method: as §1
# [34] = target: Neu5Ac(a2-3)Gal(b1-3)GalNAc(b1-4)[Neu5Ac(a2-8)Neu5Ac(a2-3)]Gal(b1-4)Glc
# Summary of the method: as §1
# [35] = target: Neu5Ac(a2-3)Gal(b1-3)GalNAc6S
# Summary of the method: as §1
# [36] = target: Neu5Ac(a2-3)Gal(b1-3)GlcNAc
# Summary of the method: as §1
# [37] = target: Neu5Ac(a2-3)Gal(b1-3)GlcNAc(b1-2)Man
# Summary of the method: as §1
binder,measurement,setting,value
SP16663B-bot-321-25-321 (Bacteroides ovatus) (protein) DDDDEVTMNSKFYLSTKVFPVDSYEASLSVILKDNSVVVNELQPNYRFVACATERLSKDVKITADSDDNLVSAYNKANDTEYNILPAENYSFTNKTVTIENGESVSGDSIKIELLNVGSLTTEGGYLLPVTISSIEGNNLDALSSNRGVVYLKIQNIHVNVESGQPAEGTLIADRSGWTVKVAPTTRGDAKNLIDGTNSDVARDGGAEYWLTVDIGKVQTLTGIRNKCYASSYSPTAVEVFTSSDGAKWKSIGAVTISKSGTQYIKFSKAVETRYLKYYVKQGPNTVSLTEFDLYAK,glycan array binding signal (z-score),[1],0.033
same,glycan array binding signal (z-score),[2],-0.025
same,glycan array binding signal (z-score),[3],1.33
same,glycan array binding signal (z-score),[4],0.408
same,glycan array binding signal (z-score),[5],0.244
same,glycan array binding signal (z-score),[6],0.022
same,glycan array binding signal (z-score),[7],-0.232
same,glycan array binding signal (z-score),[8],-0.059
same,glycan array binding signal (z-score),[9],-0.447
same,glycan array binding signal (z-score),[10],0.41
same,glycan array binding signal (z-score),[11],-0.277
same,glycan array binding signal (z-score),[12],-0.268
same,glycan array binding signal (z-score),[13],-0.366
same,glycan array binding signal (z-score),[14],-0.565
same,glycan array binding signal (z-score),[15],-0.176
same,glycan array binding signal (z-score),[16],0.09
same,glycan array binding signal (z-score),[17],0.023
same,glycan array binding signal (z-score),[18],0.083
same,glycan array binding signal (z-score),[19],0.46
same,glycan array binding signal (z-score),[20],-0.288
same,glycan array binding signal (z-score),[21],0.486
same,glycan array binding signal (z-score),[22],-0.553
same,glycan array binding signal (z-score),[23],-0.127
same,glycan array binding signal (z-score),[24],0.523
same,glycan array binding signal (z-score),[25],-0.247
same,glycan array binding signal (z-score),[26],0.967
same,glycan array binding signal (z-score),[27],0.683
same,glycan array binding signal (z-score),[28],-0.736
same,glycan array binding signal (z-score),[29],-0.259
same,glycan array binding signal (z-score),[30],-0.459
same,glycan array binding signal (z-score),[31],0.012
same,glycan array binding signal (z-score),[32],-0.024
same,glycan array binding signal (z-score),[33],-0.003
same,glycan array binding signal (z-score),[34],0.469
same,glycan array binding signal (z-score),[35],-0.373
same,glycan array binding signal (z-score),[36],-0.205
same,glycan array binding signal (z-score),[37],0.077
